The text below walks through data of the supplement of paper PMC7266297.

Structures can show the parent of a compound that is named as a salt. This is one part of the list. Single values are uncertain, as repeats are few or missing. Where only a bound is given, the exact number is not on record here.

The subject of one assay is KB-3-1. Briefly: growth inhibition relative to DMSO control (SRB); cervical cancer cells: KB-3-1 is the parent and KB-V1 overexpresses MDR1; SRB is the sulforhodamine B stain; higher = more growth inhibition. Particulars: 1 µM; 72 h.
For the next assay, the system named is KB-V1. The assay is described as above. Particulars: 1 µM; 72 h.
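Further: Read-out is SRB optical density at 490 nm, with the control being wells given 0.5% DMSO vehicle, and compound added one day after cells were plated.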

Turning to `CN1CCc2c(c3ccccc3n2Cc2ccc(C(=O)NO)cc2)C1` [Tubastatin A], the growth inhibition is 37.3% in the assay with KB-3-1 and 0.617% in the assay with KB-V1.

For `NCC(=O)Nc1ccc(-n2nc(C(F)(F)F)cc2-c2ccc3c(ccc4ccccc43)c2)cc1`, the figures for the growth inhibition in the assay on KB-3-1 and in the assay with KB-V1 were 27.3% and 42.8%, respectively.

Take `O=S(=O)(c1cccc2cnccc12)N1CCCNCC1` [Fasudil (HA-1077) HCl]: the growth inhibition was 25% in the assay with KB-3-1 and 15.3% in the assay with KB-V1.

Take `COc1ccnc2[nH]cc(C(=O)C(=O)N3CCN(C(=O)c4ccccc4)C[C@H]3C)c12`: the growth inhibition was below 0% in the assay with KB-3-1 and 4.26% in the assay with KB-V1.

Consider `Oc1cc(O)cc(/C=C/c2ccc(O)c(O)c2)c1` [Piceatannol], for which the growth inhibition in the assay on KB-3-1 was below 0%; in the assay with KB-V1, 4.15%.

In the case of `CNC(=O)[C@H](Cc1c[nH]c2ccccc12)NC(=O)[C@@H](CC(=O)NO)CC(C)C` [Ilomastat (GM6001, Galardin)], the growth inhibition with KB-3-1 was 9.29%; in the assay with KB-V1, below 0%.

Take `O=C(O)C(Cc1c[nH]c2ccccc12)N1C(=O)c2ccccc2C1=O` (configuration not stated): the growth inhibition in the assay on KB-3-1 turned out to be 11.5%; with KB-V1, 7.73%.

`CN(C)Cc1ccc(-c2nc3cccc4c3n2CCNC4=O)cc1`: the growth inhibition is below 0% in the assay with KB-3-1 and 32.7% in the assay on KB-V1.

In the case of `O=C(O)c1cc2cccc([N+](=O)[O-])c2[nH]1`, the growth inhibition in the assay on KB-3-1 is 53.5%; in the assay on KB-V1, 9.26%.

For `CC(=O)N1CCN(CCOc2ccc(C3CCN(C4=Nn5c(nnc5C(F)(F)F)CC4)CC3)cc2)CC1`, the growth inhibition with KB-3-1 is 21.3%; in the assay with KB-V1, 31.2%.

On to `NC(=O)N1c2ccccc2C=Cc2ccccc21` [Carbamazepine], for which the figures for the growth inhibition in the assay with KB-3-1 and in the assay on KB-V1 were 36.3% and 12.2%, respectively.

For the compound `N#Cc1cc(CN2CCC(Nc3ncnc4sc(Cl)cc34)CC2)ccc1F`, the growth inhibition came out at 37.9% with KB-3-1 and 10.5% with KB-V1.

`COc1cc2ncnc(Nc3ccc(F)c(Cl)c3)c2cc1OCCCN1CCOCC1` [Gefitinib (ZD1839)]: the figures for the growth inhibition in the assay with KB-3-1 and in the assay on KB-V1 were 26.2% and 18.2%, respectively.

For `Cn1c(=O)cc(N2CCC[C@@H](N)C2)n(Cc2ccccc2C#N)c1=O` [Alogliptin], the growth inhibition was 23% in the assay with KB-3-1 and 30.5% with KB-V1.

Take `COCCOC(=O)C1=C(C)NC(C)=C(C(=O)OC/C=C/c2ccccc2)C1c1cccc([N+](=O)[O-])c1` (configuration not stated) [Cilnidipine]: the growth inhibition came out at 14.4% in the assay with KB-3-1 and 35.9% with KB-V1.

`CCc1nc(-c2cccc(C)c2)c(-c2ccnc(NC(=O)c3ccccc3)c2)s1`: the results for the growth inhibition in the assay on KB-3-1 and in the assay on KB-V1 were below 0% and 11.3%, respectively.

In the case of `Cn1c(Nc2ccc(C(F)(F)F)cc2)nc2cc(Oc3ccnc(-c4ncc(C(F)(F)F)[nH]4)c3)ccc21`, the growth inhibition in the assay with KB-3-1 is below 0%; in the assay on KB-V1, 43.9%.

As for `Cc1cc(C2CCCCC2)n(O)c(=O)c1` [Ciclopirox ethanolamine], the growth inhibition with KB-3-1 worked out at 22.7%; in the assay with KB-V1, 27.6%.

In the case of `CC1=C(/C=C/C(C)=C/C=C/C(C)=C\C(=O)O)C(C)(C)CCC1` [Isotretinoin], the results for the growth inhibition in the assay with KB-3-1 and in the assay with KB-V1 were 20.2% and 61.9%, respectively.

As for `CC[C@H](C)C(=O)O[C@H]1C[C@H](O)C=C2C=C[C@H](C)[C@H](CC[C@@H](O)C[C@@H](O)CC(=O)O)[C@H]21` [Pravastatin sodium], the growth inhibition in the assay with KB-3-1 turned out to be 7.3%; with KB-V1, 8.05%.

In the case of `CC(=O)S[C@@H]1CC2=CC(=O)CC[C@]2(C)[C@H]2CC[C@@]3(C)[C@@H](CC[C@@]34CCC(=O)O4)[C@H]12` [Spironolactone], the figures for the growth inhibition in the assay on KB-3-1 and in the assay with KB-V1 were 25.2% and 4.8%, respectively.

Turning to `Nc1ccccc1NC(=O)c1ccc(CNc2nccc(-c3cccnc3)n2)cc1` [Mocetinostat (MGCD0103)], the growth inhibition in the assay on KB-3-1 is 80.9%; in the assay on KB-V1, 74.8%.

`CCCCNc1ccc(C(=O)OCCN(C)C)cc1` [Tetracaine HCl]: the growth inhibition with KB-3-1 was 24.2%; in the assay with KB-V1 it was 2.13%.

Regarding `CCN1CCN(Cc2ccc(Nc3ncc(F)c(-c4cc(F)c5nc(C)n(C(C)C)c5c4)n3)nc2)CC1`, the growth inhibition in the assay on KB-3-1 was found to be 89.2%; in the assay with KB-V1, 53.6%.

Regarding `Oc1cccc(-c2nc(N3CCOCC3)c3oc4ncccc4c3n2)c1`, the growth inhibition in the assay with KB-3-1 was determined as 92.9%; in the assay on KB-V1, 88.3%.

As for `CC(C)C[C@H](NC(=O)[C@H](CCc1ccccc1)NC(=O)CN1CCOCC1)C(=O)N[C@@H](Cc1ccccc1)C(=O)N[C@@H](CC(C)C)C(=O)[C@@]1(C)CO1` [Carfilzomib (PR-171)], the growth inhibition amounted to 94.1% in the assay with KB-3-1 and 89.5% with KB-V1.

As for `c1ccc2c(CCNc3ccc(Nc4ccncc4)cc3)c[nH]c2c1`, the growth inhibition with KB-3-1 is 86%; in the assay with KB-V1 it was 57.4%.

Turning to `COc1ccc(F)c(F)c1C(=O)c1cnc(NC2CCN(S(C)(=O)=O)CC2)nc1N`, the growth inhibition in the assay with KB-3-1 and with KB-V1 was below 0% each time.

Turning to `CCCC(=O)OCOC(=O)C1=C(C)NC(C)=C(C(=O)OC)C1c1cccc(Cl)c1Cl` (configuration not stated) [Clevidipine Butyrate], the growth inhibition with KB-3-1 was found to be 25.5%; in the assay with KB-V1 it was 33.9%.

In the case of `O=C(Nc1cccc(C(F)(F)F)c1)Nc1cc(S(=O)(=O)NC2CC2)ccc1-c1ccsc1`, the growth inhibition is 5.96% with KB-3-1 and below 0% in the assay on KB-V1.

In the case of `CC1(C)CCC(c2ccc(Cl)cc2)=C(CN2CCN(c3ccc(C(=O)NS(=O)(=O)c4ccc(N[C@H](CCN5CCOCC5)CSc5ccccc5)c(S(=O)(=O)C(F)(F)F)c4)cc3)CC2)C1` [ABT-263 (Navitoclax)], the values for the growth inhibition with KB-3-1 and in the assay on KB-V1 were 37.5% and 60.6%, respectively.

On to `CCCOc1ccc(C(=O)OCCN(CC)CC)cc1N` [Proparacaine HCl], for which the growth inhibition turned out to be 49.5% in the assay on KB-3-1 and 24.3% in the assay with KB-V1.

Take `CN(C)CCCN1c2ccccc2CCc2ccc(Cl)cc21` [Clomipramine HCl]: the growth inhibition in the assay with KB-3-1 came to 1.3%; with KB-V1 it was 11.7%.

As to `COc1cc(OC)c(/C=C/S(=O)(=O)Cc2ccc(OC)c(NCC(=O)O)c2)c(OC)c1`, the growth inhibition in the assay with KB-3-1 amounted to 8.77%; in the assay with KB-V1, 29.6%.

With `O=C(NCc1cccc(O)c1)Nc1nc(-c2ccncc2)cs1`, the growth inhibition in the assay on KB-3-1 was 52.9%; in the assay with KB-V1, 81.8%.

Consider `CC(C)n1nc(-c2cc3cc(O)ccc3[nH]2)c2c(N)ncnc21`, for which the growth inhibition turned out to be 12.8% with KB-3-1 and 14% in the assay with KB-V1.
